From PMC4336329 (PLoS ONE, 2015)
The whole screen tested about 310,000 compounds, of which about 2,200 (0.71%) showed an effect of 50% or more. The effect is printed as a negative number. The list shows a part of the results.

target: human ether-à-go-go-related gene (hERG) potassium channel (human, UniProt Q12809); assay: primary screen, population patch clamp on CHO cells stably expressing hERG
Sequence (Q12809 whole entry, looked up): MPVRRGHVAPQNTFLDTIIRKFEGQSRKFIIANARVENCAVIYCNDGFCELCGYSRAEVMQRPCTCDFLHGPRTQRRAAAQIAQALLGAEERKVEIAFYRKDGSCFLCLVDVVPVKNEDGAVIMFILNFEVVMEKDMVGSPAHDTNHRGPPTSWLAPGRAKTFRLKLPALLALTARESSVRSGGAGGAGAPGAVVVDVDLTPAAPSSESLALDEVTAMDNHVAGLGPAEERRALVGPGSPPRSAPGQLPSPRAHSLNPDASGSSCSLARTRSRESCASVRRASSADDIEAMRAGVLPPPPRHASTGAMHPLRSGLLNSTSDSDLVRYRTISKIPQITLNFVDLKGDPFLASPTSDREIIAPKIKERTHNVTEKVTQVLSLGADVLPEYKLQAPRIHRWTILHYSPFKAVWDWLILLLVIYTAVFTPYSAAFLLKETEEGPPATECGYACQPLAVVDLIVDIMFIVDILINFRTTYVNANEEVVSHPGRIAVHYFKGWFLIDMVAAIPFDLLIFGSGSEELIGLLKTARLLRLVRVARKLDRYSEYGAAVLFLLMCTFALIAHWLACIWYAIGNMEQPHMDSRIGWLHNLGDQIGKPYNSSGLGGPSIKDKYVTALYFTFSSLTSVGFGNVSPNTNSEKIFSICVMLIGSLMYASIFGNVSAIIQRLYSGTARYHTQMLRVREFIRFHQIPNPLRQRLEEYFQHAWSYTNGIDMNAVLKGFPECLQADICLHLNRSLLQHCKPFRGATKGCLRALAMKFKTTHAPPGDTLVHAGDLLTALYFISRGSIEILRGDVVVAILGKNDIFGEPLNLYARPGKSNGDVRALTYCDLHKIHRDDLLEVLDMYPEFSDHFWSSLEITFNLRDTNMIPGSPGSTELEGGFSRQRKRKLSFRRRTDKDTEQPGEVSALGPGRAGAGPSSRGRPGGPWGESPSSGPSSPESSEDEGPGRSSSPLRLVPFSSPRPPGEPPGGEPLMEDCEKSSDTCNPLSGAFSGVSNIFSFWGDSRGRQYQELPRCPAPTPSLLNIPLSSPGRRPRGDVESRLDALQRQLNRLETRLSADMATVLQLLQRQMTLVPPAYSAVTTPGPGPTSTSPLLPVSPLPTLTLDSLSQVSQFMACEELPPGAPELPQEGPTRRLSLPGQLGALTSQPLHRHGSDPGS

SMILES | hERG current change (%, negative = inhibition) at 1uM [%]
O=C(COC(=O)C1CCCN1C(=O)c1cccs1)c1ccccc1 (stereo not shown) | 9.65
O=C(CSc1nc2ccccc2s1)N/N=C/c1ccc(C(=O)O)cc1 | 10.4
O=C(O)CN1C(=O)/C(=C/c2ccc(N3CCCCC3)o2)SC1=S | 16.1
O=C(O)c1ccc2c3c(cccc13)C(=O)N(c1ccccc1)C2=O | 8.95
O=C(Nc1cccc(-c2csc(Nc3ccc(Cl)cc3)n2)c1)c1cccc(C(F)(F)F)c1 | 16.7
CC(NC(=O)CCNS(=O)(=O)c1cccc2nsnc12)c1ccccc1 (stereo not shown) | 1.38
CCCNC(=O)C(Cc1ccc(Cl)cc1)NC(=O)c1ccc(C#N)cc1 (stereo not shown) | -1.74
Cc1ccc(-c2cn(CCC(=O)O)c(-c3ccc(Cl)nc3)n2)cc1 | 7.77
COC(=O)C1=C(C(=O)OC)[C@@H]2Nc3ccccc3[C@@]23C[C@@H](C(=O)OC)N(C(=O)COCc2ccccc2)C3=N1 | 6.49
Cc1ccc(CNc2oc(C)nc2C#N)cc1 | 2.36
O=C(O)c1nc(NCc2ccccc2)ncc1Cl | 9.3
Cc1ccc(C(C)C)c(OCC(=O)Nc2ccc(Cl)cn2)c1 | 6.23
Cc1cccc(N2CN(Cc3cccnc3)CNC2=S)c1C | 8.71
Cc1cccc(CCNCc2cc3cc(C)cc(C)c3[nH]c2=O)c1 | 7.02
O=C(Nc1ccccc1)c1ccc(S(=O)(=O)Nc2cccc(O)c2)cc1 | -14.9
CN(C)C=NC(=O)c1ccc(N2CCN(c3ncc(C(F)(F)F)cc3Cl)CC2)cc1 | 10.9
O=C(NNC(=O)c1cnccc1C(F)(F)F)c1cccc(Cl)c1 | 9.38
COc1ccc2cc(C3OCCO3)c(Cl)nc2c1 | 4.55
CCN(C(=O)c1ccc(S(=O)(=O)N2CCCC2)cc1)C1CCS(=O)(=O)C1 (stereo not shown) | 7.01
COc1ccccc1N1CCN(C(=O)C(=O)N/N=C/c2ccccc2F)CC1 | 5.15
C/C(CCc1ccc2c(c1)OCO2)=N\NC(=O)c1ccccc1Cl | -1.21
Cc1cc2oc(=O)cc(CN3CCN(Cc4ccccc4)CC3)c2cc1Cl | 0.748

SMILES | hERG current change (%, negative = inhibition) at 1uM [%]
C=CCN(CC=C)C(=O)c1ccc(OC2CCN(C(C)=O)CC2)c(OC)c1 | 14.1
Cc1ccc(C(C(=O)NC(C)(C)C)N(C(=O)c2csnn2)C2CC2)cc1 (stereo not shown) | 11.1
COc1ccccc1Nc1nc(N)nc(CN2CCN(c3ccccc3)CC2)n1 | -3.16
CC1CC(C)(C)CC2(C1)NC(=O)N(CC(=O)NCc1ccccc1F)C2=O (stereo not shown) | 5.84
Cc1cccn2c(=O)c3cc(C(=O)NCCCn4ccnc4)n(C)c3nc12 | 2.55
O=C1SCCc2c1n(Cc1ccccc1)c1ccccc21 | -0.147
COC(=O)c1sccc1NC(=O)c1cccc(Cl)c1 | -18.2
CCOC(=O)C1CCN(C(=O)CSCc2nc(-c3ccc(OCC)cc3)oc2C)CC1 | 0.666
COc1ccccc1NC(=O)c1sc2ncn(CC(=O)N3CCC(C)CC3)c(=O)c2c1C | 10.2
Cc1cccn2c(CN3CCNC(=O)CC3)c(C(=O)N(C)CCc3ccccc3)nc12 | 3.46
CCc1ccc(OCC(=O)NNC(=O)c2nn(CC)c(=O)c3ccccc23)cc1 | -11.2
CCCCc1nnc(NC(=O)CSCc2cc(=O)n3cc(C)sc3n2)s1 | 11.7
CC1C(=O)N2CCCc3cc(NC(=O)C(=O)NCCc4ccccc4)cc1c32 (stereo not shown) | 3.78
CCOc1ccccc1NC(=O)/C=C/C(N)=O | 11.1
O=C(Nc1cccc(-n2cccn2)c1)C1CCCN(Cc2ccc(C#CCCO)cc2)C1 (stereo not shown) | 11.5
COc1ccc(S(=O)(=O)Nc2ccc(S(=O)(=O)NCC3CCCO3)cc2)cc1 (stereo not shown) | 8.59
COc1ccc(S(=O)(=O)NC(C)C(=O)N2CCCC2)cc1C (stereo not shown) | 14.7
CCN(C(=O)c1cccc(S(=O)(=O)N2CCc3ccccc32)c1)C1CCS(=O)(=O)C1 (stereo not shown) | 5.96
O=C(COC(=O)c1ccc(OC(F)(F)F)cc1)NCCN1C(=O)CSC1=O | -11.9
O=C(O)CCCNS(=O)(=O)c1ccc2ccccc2c1 | 14.6
CCc1noc(C)c1C(=O)Nc1cc(S(=O)(=O)N2CCOCC2)ccc1N1CCN(CC)CC1 | 1.82
Cc1ccc(NC(=O)c2ccccc2NC(=O)c2cccs2)cc1 | 16.8

SMILES | hERG current change (%, negative = inhibition) at 1uM [%]
O=C(NCc1n[nH]c(=S)n1-c1cccc(C(F)(F)F)c1)c1ccc(S(=O)(=O)N2CCCCC2)cc1 | 14.1
Cn1nc(C(F)(F)F)c(-c2ccc(F)cc2)c1NC(=O)CSCC(=O)O | 11
C=CCN(CC=C)CCCOc1ccc(Br)cc1Cl | -4.66
C/C(=N\NC(=S)NC(C)C)c1ccccc1OC(F)F | 8.21
Cc1cc(C)nc(SCc2ccc(C(=O)N/N=C/c3ccccc3C(=O)O)cc2)n1 | 6.23
CNC(=O)COC(=O)c1ccc(-c2nc3ccccc3s2)s1 | 6.64
CC(C)(C)n1nc2c(c1NC(=O)COc1ccc(Cl)cc1)CSC2 | -10.2
Cc1nn(-c2ccccc2)c(Cl)c1C(=O)Nc1ccc(N2CCOCC2)cc1 | -2.78
Cc1ccc(S(=O)(=O)N2CCN(C(=O)CSc3ccccn3)CC2)c(C)c1 | 5.57
CC(OC(=O)c1cc(-c2cccnc2)nc2ccccc12)C(=O)Nc1ccc2ccccc2c1 (stereo not shown) | 8.86
CCN(CC)c1ccc(C(=O)OCC(=O)Nc2cccc(S(=O)(=O)NC3=NCCCCC3)c2)cc1 | 6.14
Cc1ccc2c(c1)N(CC(=O)NCC(C)c1ccccc1)C(=O)c1cccnc1O2 (stereo not shown) | 4.12
CCCCn1c(N)c(N(CC(C)C)C(=O)CSCC(=O)Nc2ccc(OC)cc2)c(=O)[nH]c1=O | 3.55
COC(=O)c1c(NC(=O)C(C)C)sc(C(=O)N2CCOCC2)c1C | 11.8
FC(F)(F)c1cccc(OCc2nnc3n2CCC3)c1 | 13.8
COC(=O)C1=C(c2ccc(OCc3ccccc3)cc2)C[C@@H]2CC[C@H]1N2C(=O)NCc1cccc(C(F)(F)F)c1 | 2.03
CCc1ccc(C(=O)Nc2ccc(C)c(NS(C)(=O)=O)c2)cc1 | 12.4
CSc1nc(N)c2c(n1)OC(N)=C(C#N)C2c1cccnc1 (stereo not shown) | -0.914
O=C(Nc1ccc(S(=O)(=O)Nc2ncccn2)cc1)c1cccc(S(=O)(=O)N2CCCC2)c1 | 7.72
COc1cc(C(=O)Nc2nncs2)cc(OC)c1OC | 6.99
CC12CC(NC(=O)N1c1cccc(C(=O)N3CCN(c4ccccc4)CC3)c1)c1ccccc1O2 (stereo not shown) | 3.82
CCCc1nnc(SCC(=O)N2CCCCC2C)n1CC1CCCO1 (stereo not shown) | 9.62

SMILES | hERG current change (%, negative = inhibition) at 1uM [%]
CCN(CC(=O)Nc1ccc2c(c1)OCCO2)C(=O)/C=C/c1ccc(OC)cc1OC | 5.15
CCCc1c(O)c2ccccc2n(-c2ccccc2)c1=O | 7.88
Oc1cccc(C2c3[nH]c4ccccc4c3CCN2Cc2cnn(-c3ccccc3)c2)c1 (stereo not shown) | 2.66
CN(CC(=O)Nc1ccc(F)c(F)c1)S(=O)(=O)c1cccs1 | 7.44
CC1CCN(C(=O)COC(=O)c2cc(Cl)c3c(c2)OCO3)CC1 | 10.2
Cl.NCCSC1CC(=O)N(c2ccc(Cl)c(Cl)c2)C1=O (stereo not shown) | 18.9
Cc1cc(C(=O)NCCCN2CCN(c3cc(Cl)ccc3C)CC2)n(-c2ccccc2)n1 | -43
Cc1cc(C)c(NC(=O)CN(C)C(=O)CCC(=O)c2ccc(C)s2)c(C)c1 | 3.46
O=C(OCc1ccc(F)cc1)c1cccnc1Cl | 9.48
CN(CC(=O)NCc1ccc(Cl)cc1)S(=O)(=O)c1cccc2cccnc12 | -4.24
CC(C)(C)c1cc(NC(=O)CSc2nnc(NCc3ccccc3)s2)n(-c2ccccc2)n1 | -11.6
N=c1c(-c2nc3ccccc3[nH]2)cc(C(=O)c2cccs2)nn1-c1ccc(Cl)cc1 | 16.1
O=C(O)CCCn1cc(NC(=O)COc2cc(F)ccc2[N+](=O)[O-])cn1 | 10.3
COc1cc(/C=C/C(=O)Nc2cc(S(=O)(=O)N3CCOCC3)ccc2N2CCCC2)cc(OC)c1OC | 1.78
Cc1cc(NCc2cccnc2)no1 | 17.1
COC(=O)C1=C(c2cccc(OCc3ccccc3)c2)C[C@@H]2CC[C@H]1N2C(=O)NCCCOC(C)C | 12.2
COc1ccc2cc(C#N)c(SCC(=O)Nc3nonc3C)nc2c1 | 6.25
COc1ccc(NC(=O)CS(=O)(=O)c2ccc(C)cc2)c(OC)c1 | 12.4
O=C(/C(=C/c1ccccc1Cl)c1ccccc1)N1CCOCC1 | 5.39
